Results reported in article PMC9039177 (Frontiers in Chemistry, 2022).

Conditions: 37°C, up to 6 h, absence of BNPP
Protocol: Compound stability in mouse plasma was assessed in the absence and presence of 500 µM bis-para-nitrophenyl phosphate (BNPP), a known carboxylesterase inhibitor ([Eng et al., 2010]). Compound was spiked into blank mouse plasma (that had been pre-equilibrated with blank solvent or 500 µM BNPP at 37°C for 1 h) and maintained at 37°C under a humidified CO2-enriched (2%) atmosphere for pH control. Samples were collected at 0, 2, 4 and 6 h (n = 2 aliquots per time point) and snap frozen on dry ice and stored at -80°C until analysis by LC/MS.

**Q.** Which “hydrolysis in mouse plasma” value does the source give for `C[C@H](c1cccc2ccccc12)N1CCC(C(=O)NCc2cccc(F)c2)CC1` [Compound 3k] here?
**A.** The value was “highly susceptible to hydrolysis in mouse plasma”.

**Q.** Which “hydrolysis in mouse plasma” value does the source give for `COc1cc(CNC(=O)C2CCN([C@H](C)c3cccc4ccccc34)CC2)ccn1` [Compound 5c] here?
**A.** The value was “Plasma-mediated hydrolysis was also evident”.

**Q.** With `COc1cc(CNC(=O)C2CCN(C(C)c3ccc(OC)c4ccccc34)CC2)ccn1` (stereo not drawn) [Compound 9, 1-[1-(4-methoxynaphthalen-1-yl)ethyl]-N-[(2-methoxypyridin-4-yl)methyl]piperidine-4-carboxamide] as the compound, how does the “hydrolysis in mouse plasma” value read?
**A.** Its value is “not detected”.
